# Laboratory results: the supplement of paper PMC8728848
# The other results are listed elsewhere or left out.
# Tests used:
# Assay in all cases: glycan array binding signal (z-score within array); higher = stronger binding
# Conditions in all cases: glycan notation: IUPAC condensed, linker removed; mutation: F355A
# [1] = target: Neu5Ac(a2-3)Gal(b1-3)[Fuc(a1-4)]GlcNAc(b1-3)Gal(b1-4)[Fuc(a1-3)]GlcNAc
# Method in brief: (§1)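 Arrays were curated from the Consortium for Functional Glycomics database, 3228 in total, and kept only where the protein sequence was available. Binding is expressed as a within-array Z-score. This score was averaged across arrays of the same protein sequence at different concentrations or buffers and across linkers, and negative values can be read as non-binding.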
# [2] = target: Neu5Ac(a2-3)Gal(b1-3)[Neu5Ac(a2-3)Gal(b1-4)]GlcNAc
# Method in brief: as §1
# [3] = target: Neu5Ac(a2-3)Gal(b1-3)[Neu5Ac(a2-6)]GalNAc
# Method in brief: as §1
# Neu5Ac(a2-3)Gal(b1-4)Glc = target: Neu5Ac(a2-3)Gal(b1-4)Glc
# Method in brief: as §1
# [4] = target: Neu5Ac(a2-3)Gal(b1-4)GlcNAc
# Method in brief: as §1
# [5] = target: Neu5Ac(a2-3)Gal(b1-4)GlcNAc(b1-2)Man(a1-3)[GlcNAc(b1-2)Man(b1-4)GlcNAc(b1-2)Man(a1-6)]Man(b1-4)GlcNAc(b1-4)GlcNAc
# Method in brief: as §1
# [6] = target: Neu5Ac(a2-3)Gal(b1-4)GlcNAc(b1-2)Man(a1-3)[Neu5Ac(a2-6)Gal(b1-4)GlcNAc(b1-2)Man(a1-6)]Man(b1-4)GlcNAc(b1-4)GlcNAc
# Method in brief: as §1
# [7] = target: Neu5Ac(a2-3)Gal(b1-4)GlcNAc(b1-3)Gal(b1-3)GlcNAc
# Method in brief: as §1
# [8] = target: Neu5Ac(a2-3)Gal(b1-4)GlcNAc(b1-3)Gal(b1-4)GlcNAc
# Method in brief: as §1
# [9] = target: Neu5Ac(a2-3)Gal(b1-4)GlcNAc(b1-3)Gal(b1-4)GlcNAc(b1-3)Gal(b1-4)GlcNAc
# Method in brief: as §1
# [10] = target: Neu5Ac(a2-3)Gal(b1-4)GlcNAc(b1-3)Gal(b1-4)[Fuc(a1-3)]GlcNAc
# Method in brief: as §1
# [11] = target: Neu5Ac(a2-3)Gal(b1-4)GlcNAc(b1-6)[Gal(b1-3)]GalNAc
# Method in brief: as §1
# [12] = target: Neu5Ac(a2-3)Gal(b1-4)GlcNAc(b1-6)[Neu5Ac(a2-3)Gal(b1-3)]GalNAc
# Method in brief: as §1
# [13] = target: Neu5Ac(a2-3)Gal(b1-4)GlcNAc6S
# Method in brief: as §1
# [14] = target: Neu5Ac(a2-3)Gal(b1-4)[Fuc(a1-3)]GlcNAc
# Method in brief: as §1
# [15] = target: Neu5Ac(a2-3)Gal(b1-4)[Fuc(a1-3)]GlcNAc(b1-3)Gal
# Method in brief: as §1
# [16] = target: Neu5Ac(a2-3)Gal(b1-4)[Fuc(a1-3)]GlcNAc(b1-3)Gal(b1-4)GlcNAc
# Method in brief: as §1
# [17] = target: Neu5Ac(a2-3)Gal(b1-4)[Fuc(a1-3)]GlcNAc(b1-3)Gal(b1-4)[Fuc(a1-3)]GlcNAc(b1-3)Gal(b1-4)[Fuc(a1-3)]GlcNAc
# Method in brief: as §1
# [18] = target: Neu5Ac(a2-3)Gal(b1-4)[Fuc(a1-3)]GlcNAc(b1-6)[Gal(b1-3)]GalNAc
# Method in brief: as §1
# [19] = target: Neu5Ac(a2-3)Gal(b1-4)[Fuc(a1-3)]GlcNAc6S
# Method in brief: as §1
# [20] = target: Neu5Ac(a2-3)Gal6S(b1-4)GlcNAc
# Method in brief: as §1
# [21] = target: Neu5Ac(a2-3)Gal6S(b1-4)[Fuc(a1-3)]GlcNAc
# Method in brief: as §1
# Neu5Ac(a2-3)GalNAc = target: Neu5Ac(a2-3)GalNAc
# Method in brief: as §1
# [22] = target: Neu5Ac(a2-3)GalNAc(b1-4)GlcNAc
# Method in brief: as §1
# [23] = target: Neu5Ac(a2-3)[GalNAc(b1-4)]Gal(b1-4)Glc
# Method in brief: as §1
# [24] = target: Neu5Ac(a2-3)[GalNAc(b1-4)]Gal(b1-4)GlcNAc
# Method in brief: as §1
# [25] = target: Neu5Ac(a2-3)[Neu5Ac(a2-6)]GalNAc
# Method in brief: as §1
# Neu5Ac(a2-6)Gal = target: Neu5Ac(a2-6)Gal
# Method in brief: as §1
# Neu5Ac(a2-6)Gal(b1-4)Glc = target: Neu5Ac(a2-6)Gal(b1-4)Glc
# Method in brief: as §1
# [26] = target: Neu5Ac(a2-6)Gal(b1-4)GlcNAc
# Method in brief: as §1
# [27] = target: Neu5Ac(a2-6)Gal(b1-4)GlcNAc(b1-2)Man(a1-3)[Gal(b1-4)GlcNAc(b1-2)Man(a1-6)]Man(b1-4)GlcNAc(b1-4)GlcNAc
# Method in brief: as §1
# [28] = target: Neu5Ac(a2-6)Gal(b1-4)GlcNAc(b1-2)Man(a1-3)[GlcNAc(b1-2)Man(a1-6)]Man(b1-4)GlcNAc(b1-4)GlcNAc
# Method in brief: as §1
# [29] = target: Neu5Ac(a2-6)Gal(b1-4)GlcNAc(b1-2)Man(a1-3)[GlcNAc(b1-2)Man(b1-4)GlcNAc(b1-2)Man(a1-6)]Man(b1-4)GlcNAc(b1-4)GlcNAc
# Method in brief: as §1
# [30] = target: Neu5Ac(a2-6)Gal(b1-4)GlcNAc(b1-2)Man(a1-3)[Neu5Ac(a2-6)Gal(b1-4)GlcNAc(b1-2)Man(a1-6)]Man(b1-4)GlcNAc(b1-4)GlcNAc
# Method in brief: as §1
# [31] = target: Neu5Ac(a2-6)Gal(b1-4)GlcNAc(b1-2)Man(a1-6)[Gal(b1-4)GlcNAc(b1-2)Man(a1-3)]Man(b1-4)GlcNAc(b1-4)GlcNAc
# Method in brief: as §1
# [32] = target: Neu5Ac(a2-6)Gal(b1-4)GlcNAc(b1-2)Man(a1-6)[GlcNAc(b1-2)Man(a1-3)]Man(b1-4)GlcNAc(b1-4)GlcNAc
# Method in brief: as §1
# [33] = target: Neu5Ac(a2-6)Gal(b1-4)GlcNAc(b1-3)Gal(b1-4)GlcNAc
# Method in brief: as §1
# [34] = target: Neu5Ac(a2-6)Gal(b1-4)GlcNAc(b1-3)Gal(b1-4)[Fuc(a1-3)]GlcNAc(b1-3)Gal(b1-4)[Fuc(a1-3)]GlcNAc
# Method in brief: as §1
# [35] = target: Neu5Ac(a2-6)Gal(b1-4)GlcNAc6S
# Method in brief: as §1
# Neu5Ac(a2-6)GalNAc = target: Neu5Ac(a2-6)GalNAc
# Method in brief: as §1
# [36] = target: Neu5Ac(a2-6)GalNAc(b1-4)GlcNAc
# Method in brief: as §1
# Neu5Ac(a2-8)Neu5Ac = target: Neu5Ac(a2-8)Neu5Ac
# Method in brief: as §1
# [37] = target: Neu5Ac(a2-8)Neu5Ac(a2-3)Gal(b1-4)Glc
# Method in brief: as §1
# [38] = target: Neu5Ac(a2-8)Neu5Ac(a2-3)[GalNAc(b1-4)]Gal(b1-4)Glc
# Method in brief: as §1
# [39] = target: Neu5Ac(a2-8)Neu5Ac(a2-8)Neu5Ac
# Method in brief: as §1
# [40] = target: Neu5Ac(a2-8)Neu5Ac(a2-8)Neu5Ac(a2-3)Gal(b1-4)Glc
# Method in brief: as §1
# [41] = target: Neu5Ac(a2-8)Neu5Ac(a2-8)Neu5Ac(a2-3)[GalNAc(b1-4)]Gal(b1-4)Glc
# Method in brief: as §1
# [42] = target: Neu5Ac(a2-8)Neu5Ac(a2-8)Neu5Ac(a2-8)Neu5Ac(a2-3)[GalNAc(b1-4)]Gal(b1-4)Glc
# Method in brief: as §1
# [43] = target: Neu5Ac(b2-6)Gal(b1-4)GlcNAc
# Method in brief: as §1
# Neu5Ac(b2-6)GalNAc = target: Neu5Ac(b2-6)GalNAc
# Method in brief: as §1
# [44] = target: Neu5Ac9Ac(a2-6)Gal(b1-4)GlcNAc
# Method in brief: as §1
# [45] = target: Neu5Gc(a2-3)Gal(b1-3)GlcNAc
# Method in brief: as §1
# [46] = target: Neu5Gc(a2-3)Gal(b1-3)[Fuc(a1-4)]GlcNAc
# Method in brief: as §1
# Neu5Gc(a2-3)Gal(b1-4)Glc = target: Neu5Gc(a2-3)Gal(b1-4)Glc
# Method in brief: as §1
# [47] = target: Neu5Gc(a2-3)Gal(b1-4)GlcNAc
# Method in brief: as §1
# [48] = target: Neu5Gc(a2-3)Gal(b1-4)[Fuc(a1-3)]GlcNAc
# Method in brief: as §1
# [49] = target: Neu5Gc(a2-6)Gal(b1-4)GlcNAc
# Method in brief: as §1
# Neu5Gc(a2-6)GalNAc = target: Neu5Gc(a2-6)GalNAc
# Method in brief: as §1
# [50] = target: Neu5Gc(b2-6)Gal(b1-4)GlcNAc
# Method in brief: as §1
binder,measurement,setting,value
Surfactant Protein D (Human); Neck + Carbohydrate Recognition Domain (NCRD) (Homo sapiens) (protein) MLLFLLSALVLLTQPLGYLEAEMKTYSHRTMPSACTLVMCSSVESGLPGRDRDGREGPRGEKGDPGLPGAAGQAGMPGQAGPVGPKGDNGSVGEPGPKGDTGPSGPPGPPGVPGPAGREGALGKQGNIGPQGKPGPKGEAGPKGEVGAPGMQGSAGARGLAGPKGERGVPGERGVPGNTGAAGSAGAMGPQGSPGARGPPGLKGDKGIPGDKGAKGESGLPDVASLRQQVEALQGQVQHLQAAFSQYKKVELFPNGQSVGEKIFKTAQFVKPFTEAQLLCTQAGGQLASPRSAAENAALQQLVVAKNEAAFLSMTDSKTEGKFTYPTGESLVYSNWAPGEPNDDGGSEDCVEIFTNGKWNDRACGEKRLVVCEA,glycan array binding signal (z-score),[1],-0.091
same,glycan array binding signal (z-score),[2],-0.12
same,glycan array binding signal (z-score),[3],-0.14
same,glycan array binding signal (z-score),Neu5Ac(a2-3)Gal(b1-4)Glc,-0.129
same,glycan array binding signal (z-score),[4],-0.098
same,glycan array binding signal (z-score),[5],-0.059
same,glycan array binding signal (z-score),[6],-0.166
same,glycan array binding signal (z-score),[7],-0.15
same,glycan array binding signal (z-score),[8],-0.113
same,glycan array binding signal (z-score),[9],-0.156
same,glycan array binding signal (z-score),[10],-0.054
same,glycan array binding signal (z-score),[11],-0.161
same,glycan array binding signal (z-score),[12],-0.134
same,glycan array binding signal (z-score),[13],-0.121
same,glycan array binding signal (z-score),[14],-0.111
same,glycan array binding signal (z-score),[15],-0.071
same,glycan array binding signal (z-score),[16],-0.107
same,glycan array binding signal (z-score),[17],-0.115
same,glycan array binding signal (z-score),[18],0.381
same,glycan array binding signal (z-score),[19],-0.116
same,glycan array binding signal (z-score),[20],-0.126
same,glycan array binding signal (z-score),[21],-0.145
same,glycan array binding signal (z-score),Neu5Ac(a2-3)GalNAc,-0.149
same,glycan array binding signal (z-score),[22],-0.14
same,glycan array binding signal (z-score),[23],-0.137
same,glycan array binding signal (z-score),[24],-0.138
same,glycan array binding signal (z-score),[25],-0.103
same,glycan array binding signal (z-score),Neu5Ac(a2-6)Gal,-0.145
same,glycan array binding signal (z-score),Neu5Ac(a2-6)Gal(b1-4)Glc,-0.137
same,glycan array binding signal (z-score),[26],-0.108
same,glycan array binding signal (z-score),[27],-0.09
same,glycan array binding signal (z-score),[28],-0.126
same,glycan array binding signal (z-score),[29],-0.137
same,glycan array binding signal (z-score),[30],-0.13
same,glycan array binding signal (z-score),[31],-0.15
same,glycan array binding signal (z-score),[32],-0.126
same,glycan array binding signal (z-score),[33],-0.159
same,glycan array binding signal (z-score),[34],-0.155
same,glycan array binding signal (z-score),[35],-0.164
same,glycan array binding signal (z-score),Neu5Ac(a2-6)GalNAc,-0.155
same,glycan array binding signal (z-score),[36],-0.126
same,glycan array binding signal (z-score),Neu5Ac(a2-8)Neu5Ac,-0.095
same,glycan array binding signal (z-score),[37],-0.136
same,glycan array binding signal (z-score),[38],-0.098
same,glycan array binding signal (z-score),[39],-0.151
same,glycan array binding signal (z-score),[40],-0.134
same,glycan array binding signal (z-score),[41],-0.136
same,glycan array binding signal (z-score),[42],-0.132
same,glycan array binding signal (z-score),[43],-0.153
same,glycan array binding signal (z-score),Neu5Ac(b2-6)GalNAc,-0.157
same,glycan array binding signal (z-score),[44],-0.153
same,glycan array binding signal (z-score),[45],-0.141
same,glycan array binding signal (z-score),[46],-0.167
same,glycan array binding signal (z-score),Neu5Gc(a2-3)Gal(b1-4)Glc,-0.166
same,glycan array binding signal (z-score),[47],-0.136
same,glycan array binding signal (z-score),[48],-0.145
same,glycan array binding signal (z-score),[49],-0.118
same,glycan array binding signal (z-score),Neu5Gc(a2-6)GalNAc,-0.149
same,glycan array binding signal (z-score),[50],-0.136
